Assay results from PMC4336329 (PLoS ONE, 2015).
Hit rate of the full screen: of about 310,000 compounds, about 2,200 (0.71%) showed an effect of 50% or more. The effect is printed as a negative number. This is one part of the list.

These compounds were tested against human ether-à-go-go-related gene (hERG) potassium channel (human, UniProt Q12809) (assay: primary screen, population patch clamp on CHO cells stably expressing hERG).
Sequence of human ether-à-go-go-related gene (hERG) potassium channel (Q12809 whole entry, looked up): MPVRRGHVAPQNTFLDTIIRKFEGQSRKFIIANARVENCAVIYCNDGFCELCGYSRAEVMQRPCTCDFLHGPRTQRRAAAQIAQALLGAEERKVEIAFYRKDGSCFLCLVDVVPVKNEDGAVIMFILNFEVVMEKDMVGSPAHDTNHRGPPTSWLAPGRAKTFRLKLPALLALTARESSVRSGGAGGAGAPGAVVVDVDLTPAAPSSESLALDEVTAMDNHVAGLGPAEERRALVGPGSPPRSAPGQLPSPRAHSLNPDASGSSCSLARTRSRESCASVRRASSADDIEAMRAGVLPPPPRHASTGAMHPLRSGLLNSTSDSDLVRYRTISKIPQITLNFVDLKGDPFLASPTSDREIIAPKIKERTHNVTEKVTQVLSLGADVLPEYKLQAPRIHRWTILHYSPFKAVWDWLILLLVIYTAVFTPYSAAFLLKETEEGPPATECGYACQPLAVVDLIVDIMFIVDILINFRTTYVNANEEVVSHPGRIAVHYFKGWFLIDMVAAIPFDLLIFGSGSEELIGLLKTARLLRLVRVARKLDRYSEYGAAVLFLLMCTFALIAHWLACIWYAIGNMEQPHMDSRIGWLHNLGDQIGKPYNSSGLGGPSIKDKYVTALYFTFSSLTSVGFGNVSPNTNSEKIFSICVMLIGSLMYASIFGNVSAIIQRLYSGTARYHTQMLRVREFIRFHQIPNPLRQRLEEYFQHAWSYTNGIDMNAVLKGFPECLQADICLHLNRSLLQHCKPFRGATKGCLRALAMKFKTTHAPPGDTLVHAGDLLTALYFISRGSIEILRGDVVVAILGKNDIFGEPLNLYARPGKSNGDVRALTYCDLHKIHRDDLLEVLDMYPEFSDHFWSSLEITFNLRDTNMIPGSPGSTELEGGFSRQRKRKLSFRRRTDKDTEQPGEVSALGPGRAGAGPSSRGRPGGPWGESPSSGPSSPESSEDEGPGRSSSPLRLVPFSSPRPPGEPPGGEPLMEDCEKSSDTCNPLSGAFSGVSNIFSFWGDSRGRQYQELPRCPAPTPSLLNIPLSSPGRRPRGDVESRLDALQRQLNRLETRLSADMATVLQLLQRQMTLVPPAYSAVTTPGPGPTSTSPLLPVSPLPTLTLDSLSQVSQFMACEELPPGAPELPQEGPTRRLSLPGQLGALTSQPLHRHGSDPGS

Row | Compound | hERG current change (%, negative = inhibition) at 1uM
1 | Cc1ccc(N(Cc2ccccc2)C(=O)c2ccc(S(=O)(=O)N3CCOCC3)cc2)cc1 | -0.928%
2 | CSc1nc2ccc(NS(=O)(=O)c3ccccc3F)cc2s1 | 14.7%
3 | CC1(C)Cc2c(sc3c2c(N)nc(=S)n3Cc2ccc(Br)cc2)CO1 | 7.9%
4 | O=C(CCCn1c(=O)c2sccc2n(CC(=O)NCC2CCCO2)c1=O)NCc1ccco1 (stereo not drawn) | 5.26%
5 | Cn1c(SCC(=O)N2c3ccccc3Sc3ccccc32)nnc1-c1ccco1 | 2.91%
6 | COc1ccc2cc3cc(C(=O)NCc4ccco4)oc3nc2c1 | 10.3%
7 | O=C(C1CC(=O)N(c2ccc(F)cc2)C1)N1CCCCC1 (stereo not drawn) | 8.04%
8 | O=C(c1cc([N+](=O)[O-])ccc1Cl)N1CCc2ccccc21 | 8.54%
9 | COCCN1CN=C(Nc2nc3ccccc3s2)NC1 | -0.0738%
10 | CCCN(Cc1ccco1)S(=O)(=O)c1ccc(OC)c(OC)c1 | 7.74%
11 | O=C(NCN1CCN(c2ccccc2)CC1)c1cnccn1 | 16.4%
12 | CCOC(=O)c1nnsc1-c1ccc(-c2snnc2C(=O)OCC)cc1 | -2.7%
13 | CCNCc1cc(Br)c(OCC(=O)Nc2ccccc2)c(OC)c1.Cl | 5.7%
14 | COc1ccc(NC(=O)COC(=O)Cn2nnc3ccccc32)cc1 | 9.24%
15 | CCC1=C(OC(=O)N(CC)CC)N2C(=O)OC(=NCC3CC3)[C@]2(Cc2ccccc2)[C@H]2C1=CC[C@H]1C(=O)N(C)C(=O)[C@H]12 | 3.55%
16 | Cc1nc(N)sc1C(=O)N/N=C/c1c[nH]c2ccccc12 | 3.83%
17 | Cc1ccc(NC(=O)Cc2csc(-c3ccccc3)n2)cc1F | 7.58%
18 | CCOC(=O)Cc1cc(=O)[nH]c(/N=C(\N)Nc2ccc(C)cc2C)n1 | 10.8%
19 | COc1ccc(N(CC(=O)NCc2ccc3c(c2)OCO3)S(=O)(=O)c2ccccc2[N+](=O)[O-])c(OC)c1 | -3.17%
20 | COc1ccc(-n2nnnc2SCC#CCO)cc1 | -18.2%
21 | CCCCN(C(=O)c1nn(C)c(=O)c2ccccc12)c1c(N)n(CCC)c(=O)[nH]c1=O | 0.227%
22 | COc1ccc(N2CCN(C(=O)CCCCCn3c(=S)[nH]c4cc5c(cc4c3=O)OCO5)CC2)cc1 | 13.7%
23 | CC(C)C(NC(=O)c1ccc(F)cc1)C(=O)Nc1cccnc1 (stereo not drawn) | 11.3%

Row | Compound | hERG current change (%, negative = inhibition) at 1uM
24 | O=C(c1ccncc1)N1CCc2ccccc2C1 | 3.22%
25 | O=C(CCn1c(=O)sc2ccccc21)NCCN1CCOCC1 | 14.5%
26 | CC(C)c1nc(SCC(=O)NC2CCCCC2)c2ccccc2n1 | 12.6%
27 | CCN1CCN(CC(=O)n2c3c(c4ccccc42)CC(C)CC3)CC1 (stereo not drawn) | 15.8%
28 | O=C(NCc1ccc2c(c1)OCO2)c1cc(COc2c(F)cccc2F)on1 | -1.42%
29 | c1ccc(-c2cc3c(NCC4COc5ccccc5O4)ncnc3s2)cc1 (stereo not drawn) | 16%
30 | Cc1ccc(OCCC(=O)OCC(=O)N2CC(=O)Nc3ccccc32)cc1 | 9.55%
31 | O=C(Nc1cccs1)N1CCN(c2ncccn2)CC1 | 10.4%
32 | O=C(COc1ccc(S(=O)(=O)N2CCOCC2)cc1)NCCCn1ccnc1 | 4.06%
33 | COc1cc(/C=C2\C(=O)ON=C2c2ccccc2)cc(OC)c1OC | 6.68%
34 | Cc1nc(Nc2nc3ccccc3o2)nc(C)c1C | 10%
35 | Cc1ccc(N(CC(=O)NCC2CCCO2)C(=O)CCC(=O)Nc2ccccn2)cc1 (stereo not drawn) | 8.18%
36 | CCCCc1n[nH]c(=S)n1Cc1ccc(Cl)cc1 | 3.48%
37 | Cc1cc2c(cc1C)N(C(=O)CSc1nncn1C)C(C)(C)c1ssc(=S)c1-2 | -2.99%
38 | Cc1cccc(OCC(=O)Nc2ccc(C(=O)Nc3ccccc3C(=O)O)cc2)c1C | 4%
39 | NC(=O)N=Nc1c(O)n(Cc2ccccc2)c2ccc(Br)cc12 | 4.36%
40 | Fc1ccccc1-c1nc(NCCCN2CCOCC2)c2ccccc2n1 | -9.4%
41 | C=CCOc1ccccc1/C=C/C(=O)O | -8.5%
42 | CCC1(C)Cc2ccccc2-c2c1c(=O)n(-c1ccc(C)cc1)c1nnnn21 (stereo not drawn) | 8.67%
43 | COc1ccc(S(=O)Cc2ccc(C(=O)NC3CC3)o2)cc1 (stereo not drawn) | 13.7%
44 | COc1ccccc1C(=O)COC(=O)c1ccc(Cl)nc1 | 3.01%
45 | Brc1ccc(N=Nc2ccc3ccccc3n2)cc1 | 3.01%
46 | CC1CCCCC12NC(=O)N(CC(=O)NCCc1ccc(F)cc1)C2=O (stereo not drawn) | -1.03%

Row | Compound | hERG current change (%, negative = inhibition) at 1uM
47 | CCCNc1nc(N2CCOCC2)nc(N2CCOCC2)n1 | -8.77%
48 | CCc1ccccc1NC(=O)Nc1ccc(F)cc1F | 9.29%
49 | O=C(CSc1nnc2ccc3ccccc3n12)N1CCOCC1 | 7.04%
50 | Cc1ccc2[nH]c(=O)c3cc(C(=O)N4CCN(C(=O)c5ccco5)CC4)sc3c2c1 | 7.63%
51 | CC(c1ccccc1)n1cc(C(=O)NCc2ccccn2)nn1 (stereo not drawn) | 11.4%
52 | COc1ccc2nc3oc(C(=O)NCCCOC(C)C)cc3cc2c1 | 15.4%
53 | COc1ccc(CCNC(=O)CSc2nnc(Cn3c(=O)sc4ccccc43)n2C)cc1OC | 2.35%
54 | Cc1nnnn1/C(=C\c1ccccc1)C(=O)OCC(=O)NC(C)(C)C | -3.57%
55 | COc1ccc(CCCC(=O)N/N=C/c2cccc(OC)c2O)cc1C | 6.36%
56 | COC(=O)CC(c1ccccc1F)N1Cc2ccccc2C1=O (stereo not drawn) | 5.86%
57 | CC1(C)Cc2c(cnn2-c2ccccc2)C(NC(=O)CCCN2CCCC2=O)C1 (stereo not drawn) | 12.4%
58 | Cn1nccc1NC(=O)Nc1cccc(Cl)c1Cl | 14.7%
59 | CCOc1ccc2nc(SCC(=O)NCc3ccc(OC)cc3)[nH]c2c1 | 12%
60 | Oc1ccc(Br)cc1-c1cc(-c2ccco2)[nH]n1 | 12.3%
61 | CCn1c(Sc2nc(C)nc3scc(-c4cccs4)c23)n[nH]c1=O | 7.46%
62 | COc1ccc2cc(C(=O)NCCO)sc(=O)c2c1OC | -3.36%
63 | CCOC(=O)CSc1ncnc2c1c(-c1ccccc1)cn2-c1ccc(OC)cc1 | 10.9%
64 | CC(=O)CSc1nnc(NC(=O)CCc2ccccc2)s1 | 10.7%
65 | CCOC(=O)c1cnc2ccc(OC)cc2c1NCCc1ccc(OC)c(OC)c1 | -69.5%
66 | Cc1ccc(-c2cc(C(=O)NCC3CCCO3)no2)cc1 (stereo not drawn) | 8.83%
67 | CC1(NC(=O)c2cc(Cl)nc3ccccc23)CCS(=O)(=O)C1 (stereo not drawn) | 9.68%
68 | COc1cc(/C=C2\SC(=S)N(NC(=O)c3ccc(O)cc3)C2=O)ccc1O | 18.8%
69 | CCn1ccc(C(=O)Nc2ccsc2C(=O)OC)n1 | -4.01%

Row | Compound | hERG current change (%, negative = inhibition) at 1uM
70 | COc1ccc(OC)c(C(=O)NC(CC(N)=O)c2ccc(NCCN3CCOCC3)c([N+](=O)[O-])c2)c1 (stereo not drawn) | 16.1%
71 | O=C(C1CCC(CNS(=O)(=O)c2cccc3cccnc23)CC1)N1CCCC1 (stereo not drawn) | 14.3%
72 | CCCn1c(C(O)c2ccc3c(c2)OCO3)nc2ccccc21 (stereo not drawn) | 7.08%
73 | Cc1nn(-c2cc(N3CCNCC3)ccc2[N+](=O)[O-])c(=O)c2ccccc12 | 8.18%
74 | COc1ccc(NC(=O)Cn2c(=O)oc3cc(S(=O)(=O)N4CCCC4)ccc32)cc1 | 11.2%
75 | COc1cc(/C=C2/C(=O)NN(c3cccc(C)c3)C2=O)cc([N+](=O)[O-])c1O | 8.24%
76 | COc1ccccc1OCC(=O)[O-].[Na+] | 6.84%
77 | CC(=O)Nc1ccccc1OCC(=O)NCCc1ccc(Cl)cc1Cl | 6.34%
78 | CCCSc1nc2c(=O)[nH][nH]c(=O)c2n1Cc1ccccc1 | 1.37%
79 | O=C(Nc1ccc2[nH]c3c(c2c1)CCCC3)c1ccco1 | 3.95%
80 | COC(=O)c1ccccc1NC(=O)CSc1ccc(C)cc1 | 6.14%
81 | CCOc1ccc(OCC)c(NC(=O)CSc2nnc(C3CC3)n2CC)c1 | 3.67%
82 | CC(=O)NC12CC3CC(C1)CC(C(=O)OCC(=O)Nc1c(F)cccc1F)(C3)C2 | 5.05%
83 | Cc1nc2nc(C)c(NS(=O)(=O)c3ccc(Cl)cc3)c(=O)n2[nH]1 | 12.5%
84 | CCCCn1c(N)c(N(CC(C)C)C(=O)C2CCN(c3ncnc4sc(C)c(C)c34)CC2)c(=O)[nH]c1=O | -1.89%
85 | CC(NC(=O)Cc1ccc(-c2ccccc2)cc1)c1ccccc1 (stereo not drawn) | -1.32%
86 | CC1=C[C@@H](C)[C@@H](c2ccccc2)OC1=O | 7.9%
87 | COc1cc2c(cc1OC)CN(CCC(C)c1ccc(Cl)cc1)CC2.O=C(O)/C=C\C(=O)O (stereo not drawn) | -50.5%
88 | CC(C)CN(CC(C)C)C(=O)C12CCC(C)(C(=O)O1)C2(C)C (stereo not drawn) | 7.37%
89 | O=C(Nc1ccc(N2CCOCC2)nc1)c1c(F)cccc1F | 16.6%
90 | CCCCCSc1cc(OC)c(CCNC)cc1OC.O=C(O)/C=C\C(=O)O | 2.11%
